Source: paper PMC3907550
No constants are given. Whether binding was seen depends on the method and setting. For some of these results: Binding seen in cells or lysates may run through a third protein. Some entries that bind do so weakly or less than the wild type. Sequences can lack the tags named with a protein.

Amino acid sequences for entries named in this document (tags omitted).
UniProt Q9LZG0: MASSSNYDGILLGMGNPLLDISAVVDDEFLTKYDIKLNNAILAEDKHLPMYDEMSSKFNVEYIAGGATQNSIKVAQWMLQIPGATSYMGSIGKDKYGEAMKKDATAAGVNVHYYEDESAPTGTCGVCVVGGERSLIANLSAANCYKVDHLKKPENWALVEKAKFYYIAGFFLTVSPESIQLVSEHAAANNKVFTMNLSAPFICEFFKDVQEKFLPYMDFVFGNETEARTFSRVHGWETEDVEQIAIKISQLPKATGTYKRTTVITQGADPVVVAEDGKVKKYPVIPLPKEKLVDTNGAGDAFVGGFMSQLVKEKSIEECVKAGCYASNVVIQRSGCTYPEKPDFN
UniProt P84634: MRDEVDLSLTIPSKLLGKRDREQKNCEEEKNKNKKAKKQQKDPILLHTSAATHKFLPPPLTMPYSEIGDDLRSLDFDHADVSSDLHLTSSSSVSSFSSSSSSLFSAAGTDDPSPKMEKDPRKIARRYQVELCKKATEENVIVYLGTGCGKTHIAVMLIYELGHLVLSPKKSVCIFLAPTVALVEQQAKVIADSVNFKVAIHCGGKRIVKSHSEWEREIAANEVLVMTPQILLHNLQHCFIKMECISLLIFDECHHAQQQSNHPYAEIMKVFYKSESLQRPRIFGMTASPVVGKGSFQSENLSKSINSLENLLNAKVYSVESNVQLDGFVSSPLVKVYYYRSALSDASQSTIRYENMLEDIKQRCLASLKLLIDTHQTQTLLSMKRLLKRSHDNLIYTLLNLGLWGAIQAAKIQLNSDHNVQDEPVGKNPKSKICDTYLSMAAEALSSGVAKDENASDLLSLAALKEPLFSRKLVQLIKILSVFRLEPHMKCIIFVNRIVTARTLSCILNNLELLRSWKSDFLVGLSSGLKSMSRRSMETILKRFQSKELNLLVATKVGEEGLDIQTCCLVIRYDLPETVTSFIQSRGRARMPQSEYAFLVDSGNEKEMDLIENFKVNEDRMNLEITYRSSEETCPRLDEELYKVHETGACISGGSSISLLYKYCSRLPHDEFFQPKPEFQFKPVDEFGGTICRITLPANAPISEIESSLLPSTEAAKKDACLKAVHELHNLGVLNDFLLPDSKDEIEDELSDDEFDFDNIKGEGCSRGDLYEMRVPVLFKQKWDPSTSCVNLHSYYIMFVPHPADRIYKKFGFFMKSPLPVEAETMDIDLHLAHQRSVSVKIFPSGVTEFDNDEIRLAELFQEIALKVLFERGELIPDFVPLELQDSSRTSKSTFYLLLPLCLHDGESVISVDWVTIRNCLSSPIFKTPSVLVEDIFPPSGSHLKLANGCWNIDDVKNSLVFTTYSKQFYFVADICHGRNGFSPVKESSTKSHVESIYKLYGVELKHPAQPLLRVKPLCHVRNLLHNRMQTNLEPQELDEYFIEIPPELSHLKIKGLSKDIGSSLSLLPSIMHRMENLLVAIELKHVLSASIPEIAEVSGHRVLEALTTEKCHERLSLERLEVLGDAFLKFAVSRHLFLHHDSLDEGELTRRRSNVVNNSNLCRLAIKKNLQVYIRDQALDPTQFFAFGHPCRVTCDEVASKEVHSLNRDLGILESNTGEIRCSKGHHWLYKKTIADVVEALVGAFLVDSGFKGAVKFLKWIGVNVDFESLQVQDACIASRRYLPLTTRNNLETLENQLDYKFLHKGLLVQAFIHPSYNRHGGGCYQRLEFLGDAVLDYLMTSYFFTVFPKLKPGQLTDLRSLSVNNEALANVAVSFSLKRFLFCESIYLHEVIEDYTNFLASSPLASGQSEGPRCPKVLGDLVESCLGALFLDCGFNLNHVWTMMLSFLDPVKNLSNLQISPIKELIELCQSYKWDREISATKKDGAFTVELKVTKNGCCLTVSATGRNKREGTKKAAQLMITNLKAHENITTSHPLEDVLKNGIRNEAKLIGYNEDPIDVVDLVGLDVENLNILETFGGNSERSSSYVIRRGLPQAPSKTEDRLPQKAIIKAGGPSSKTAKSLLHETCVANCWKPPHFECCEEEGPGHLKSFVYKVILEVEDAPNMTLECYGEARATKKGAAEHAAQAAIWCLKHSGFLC

Columns and labels:
[1] = target: Adenosine kinase 2 (ADK2), yeast two-hybrid fusion (Arabidopsis) (UniProt Q9LZG0); assay: two-hybrid; baits as GAL4 DNA binding domain fusions, preys as GAL4 activation domain fusions, yeast Y190; growth on medium lacking histidine with 50 mM aminotriazole; LacZ filter-lift assay
[2] = target: Adenosine kinase 2 (ADK2), full-length, fused to the N- or C-terminal portion of YFP (BiFC) (Arabidopsis) (UniProt Q9LZG0); assay: split reporter; BiFC of YFP (YN + YC fusions) in N. benthamiana leaf epidermal cells, agroinfiltration, confocal microscopy 48 h post-infiltration
[3] = target: Dicer-like 4 (DCL4), full-length, fused to the N- or C-terminal portion of YFP (BiFC) (UniProt P84634); assay: as above

Row | Binder | binding [1] | binding [2] | binding [3]
1 | SnRK1.2 (SNF1-related kinase 1), full-length, yeast two-hybrid fusion (enzyme, UniProt P92958 1-512) MDHSSNRFGNNGVESILPNYKLGKTLGIGSFGKVKIAEHVVTGHKVAIKILNRRKIKNMEMEEKVRREIKILRLFMHPHIIRQYEVIETTSDIYVVMEYVKSGELFDYIVEKGRLQEDEARNFFQQIISGVEYCHRNMVVHRDLKPENLLLDSRCNIKIADFGLSNVMRDGHFLKTSCGSPNYAAPEVISGKLYAGPEVDVWSCGVILYALLCGTLPFDDENIPNLFKKIKGGIYTLPSHLSSEARDLIPRMLIVDPVKRITIPEIRQHRWFQTHLPRYLAVSPPDTVEQAKKINEEIVQEVVNMGFDRNQVLESLRNRTQNDATVTYYLLLDNRFRVPSGYLESEFQETTDSGSNPMRTPEAGASPVGHWIPAHVDHYGLGARSQVPVDRKWALGLQSHAHPREIMNEVLKALQELNVCWKKIGHYNMKCRWVPGLADGQNTMVNNQLHFRDESSIIEDDCAMTSPTVIKFELQLYKAREEKYLLDIQRVNGPQFLFLDLCAAFLTELRVI | binds | – | –
2 | SnRK1.2 kinase domain (SnRK1-KD; amino acids 1-343), yeast two-hybrid fusion (domain or fragment, UniProt P92958 1-343) MDHSSNRFGNNGVESILPNYKLGKTLGIGSFGKVKIAEHVVTGHKVAIKILNRRKIKNMEMEEKVRREIKILRLFMHPHIIRQYEVIETTSDIYVVMEYVKSGELFDYIVEKGRLQEDEARNFFQQIISGVEYCHRNMVVHRDLKPENLLLDSRCNIKIADFGLSNVMRDGHFLKTSCGSPNYAAPEVISGKLYAGPEVDVWSCGVILYALLCGTLPFDDENIPNLFKKIKGGIYTLPSHLSSEARDLIPRMLIVDPVKRITIPEIRQHRWFQTHLPRYLAVSPPDTVEQAKKINEEIVQEVVNMGFDRNQVLESLRNRTQNDATVTYYLLLDNRFRVPSGYL | binds | – | –
3 | SnRK1.2, full-length, fused to the N- or C-terminal portion of YFP (BiFC) (enzyme, UniProt P92958 1-512) MDHSSNRFGNNGVESILPNYKLGKTLGIGSFGKVKIAEHVVTGHKVAIKILNRRKIKNMEMEEKVRREIKILRLFMHPHIIRQYEVIETTSDIYVVMEYVKSGELFDYIVEKGRLQEDEARNFFQQIISGVEYCHRNMVVHRDLKPENLLLDSRCNIKIADFGLSNVMRDGHFLKTSCGSPNYAAPEVISGKLYAGPEVDVWSCGVILYALLCGTLPFDDENIPNLFKKIKGGIYTLPSHLSSEARDLIPRMLIVDPVKRITIPEIRQHRWFQTHLPRYLAVSPPDTVEQAKKINEEIVQEVVNMGFDRNQVLESLRNRTQNDATVTYYLLLDNRFRVPSGYLESEFQETTDSGSNPMRTPEAGASPVGHWIPAHVDHYGLGARSQVPVDRKWALGLQSHAHPREIMNEVLKALQELNVCWKKIGHYNMKCRWVPGLADGQNTMVNNQLHFRDESSIIEDDCAMTSPTVIKFELQLYKAREEKYLLDIQRVNGPQFLFLDLCAAFLTELRVI | – | binds | no binding
